{"source": "PubChem BioAssay AID504332", "about": "(National Center for Advancing Translational Sciences (NCATS), 2011)", "note": "The whole screen tested about 350,000 compounds, of which about 31,000 (8.9%) were called active. Inconclusive means that the source gave no clear call. Such entries were picked first, then a sample of the others. Calls come from the whole dose curve; as a rule, active = well fitted inhibition curve with a large enough effect; inconclusive = small, poorly fitted or top-dose-only effect; inactive = no such curve, though single readings can be large or run the other way. Potencies of inconclusive entries are doubtful fits and often do not repeat. % is set by controls: 0 for no effect and ±100 for the full control effect; potency is the fitted concentration of half-maximal effect; tags give direction and shape of the fitted curve."}
{"biological_target": "Histone-lysine N-methyltransferase EHMT2 (Homo sapiens) (UniProt Q96KQ7)", "sequence (Q96KQ7 whole entry, looked up)": "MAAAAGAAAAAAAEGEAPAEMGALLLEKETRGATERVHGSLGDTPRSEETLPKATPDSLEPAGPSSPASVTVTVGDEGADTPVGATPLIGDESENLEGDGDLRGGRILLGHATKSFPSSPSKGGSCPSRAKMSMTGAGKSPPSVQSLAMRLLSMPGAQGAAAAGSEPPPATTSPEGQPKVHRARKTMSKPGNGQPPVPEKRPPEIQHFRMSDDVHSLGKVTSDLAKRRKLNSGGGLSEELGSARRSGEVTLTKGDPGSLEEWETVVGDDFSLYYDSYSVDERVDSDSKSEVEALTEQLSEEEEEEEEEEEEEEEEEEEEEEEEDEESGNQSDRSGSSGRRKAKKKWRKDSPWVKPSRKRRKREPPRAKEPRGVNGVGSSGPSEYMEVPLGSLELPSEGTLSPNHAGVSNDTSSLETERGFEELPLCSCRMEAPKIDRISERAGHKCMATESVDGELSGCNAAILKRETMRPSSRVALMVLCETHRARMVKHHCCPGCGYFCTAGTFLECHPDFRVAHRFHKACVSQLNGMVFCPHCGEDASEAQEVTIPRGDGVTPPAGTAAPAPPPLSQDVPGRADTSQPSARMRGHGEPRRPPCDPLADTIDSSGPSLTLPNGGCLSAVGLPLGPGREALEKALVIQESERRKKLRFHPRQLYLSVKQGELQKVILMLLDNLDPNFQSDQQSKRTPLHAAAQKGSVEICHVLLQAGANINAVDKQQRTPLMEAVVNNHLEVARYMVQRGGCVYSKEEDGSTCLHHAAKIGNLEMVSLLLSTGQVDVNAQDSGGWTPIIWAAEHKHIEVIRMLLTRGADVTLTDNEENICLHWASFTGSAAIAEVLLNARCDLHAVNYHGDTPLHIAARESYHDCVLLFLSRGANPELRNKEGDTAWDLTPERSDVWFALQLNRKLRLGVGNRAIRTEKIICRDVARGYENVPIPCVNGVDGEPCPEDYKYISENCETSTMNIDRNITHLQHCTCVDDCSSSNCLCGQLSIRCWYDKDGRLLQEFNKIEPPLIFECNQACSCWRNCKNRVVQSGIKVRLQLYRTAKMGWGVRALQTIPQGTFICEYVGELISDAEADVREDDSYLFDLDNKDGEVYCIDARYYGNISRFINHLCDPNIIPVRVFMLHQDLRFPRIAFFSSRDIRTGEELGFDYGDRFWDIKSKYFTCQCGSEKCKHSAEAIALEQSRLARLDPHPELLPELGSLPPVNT", "assay": "qHTS Assay for Inhibitors of Histone Lysine Methyltransferase G9a; note: nearly all actives have a fitted effect of over 75% in size", "conditions": "G9a H3K9 monomethylation, AlphaScreen, 2 h; activity, negative = inhibition: at 59 µM (top of the series) unless noted", "in_short": "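Enzyme 20 nM + cpd, 15 min RT; add b-H3K9 pep 500 nM / SAM 20 uM; 2 h RT; anti-H3K9me1 Ab 0.5 ug/mL + SA donor / anti-rabbit acceptor beads 20 ug/mL each, 10 min; AlphaScreen read.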"}
{"compound": "COc1ccc(NC(=O)c2cc(=O)[nH]c3ccccc23)cc1", "Potency": "inactive"}
{"compound": "COc1ccc(/C=C/C(=O)NC(=S)NCC2CCCO2)cc1", "note": "(stereo unspecified)", "Potency": "inconclusive: 31.6 µM [inhibitor, partial curve]"}
{"compound": "COc1cc(CNCc2ccccn2)ccc1OCC(N)=O", "Potency": "active: 2.24 µM"}
{"compound": "CC(C)(C)CC(=O)Nc1nnc(C(F)(F)F)s1", "Potency": "inactive"}
{"compound": "CCN1CCN(C(c2ccc(Cl)cc2)c2c(O)cc(C)n(CCOC)c2=O)CC1", "note": "(stereo unspecified)", "Potency": "inconclusive: 31.6 µM [inhibitor, single point]"}
{"compound": "NC(=O)c1c(NC(=O)Cn2cc([N+](=O)[O-])cn2)sc2c1CCCC2", "Potency": "inconclusive: 89.1 µM [inhibitor, single point]"}
{"compound": "COCCC(=O)N1CCC(Oc2ccc(C(=O)NCCc3ccccn3)cc2)CC1", "Potency": "inconclusive: 79.4 µM [inhibitor, single point]"}
{"compound": "CCCNC(=O)c1c(O)c2c([nH]c1=O)CCCC2", "Potency": "inactive"}
{"compound": "Cc1ccc(OCCSc2nc3ccccc3n2CCC(=O)O)cc1C", "Potency": "inconclusive: 11.2 µM [inhibitor, partial curve]"}
{"compound": "CC1CCCCN1C(=O)Cn1cc(C(=O)c2ccco2)c2ccccc21", "note": "(stereo unspecified)", "Potency": "inconclusive: 0.1 µM [inhibitor, full curve, poor fit]"}
{"compound": "COc1cccc(-c2noc(CCC(=O)NC3CCCC3)n2)c1", "Potency": "inconclusive: 14.1 µM [inhibitor, partial curve]"}
{"compound": "Cc1cc(C)cc(N(CC(=O)Nc2ccc(C(F)(F)F)cc2)S(=O)(=O)c2c(C)[nH]c(=O)[nH]c2=O)c1", "Potency": "active: 25.1 µM"}
{"compound": "Cc1cc(N2CCC(C)CC2)nc2cccc(O)c12", "Potency": "active: 50.1 µM"}
{"compound": "CC(=O)c1cc2c(cc1NC(=O)c1ccccc1C)OCO2", "Potency": "inactive"}
{"compound": "COc1ccc(-c2csc(C3=C(O)CN(C(C)C)C3=N)n2)cc1OC", "Potency": "inconclusive: 39.8 µM [inhibitor, partial curve, poor fit]"}
{"compound": "COc1ccc(CC(=O)N2CC3(C)CC2CC(C)(C)C3)cc1", "note": "(stereo unspecified)", "activity, negative = inhibition": "inactive: -14.5% [at 12.7 µM]"}
{"compound": "CCc1cccc(C)c1NC(=O)CCN1C(=O)NC(C)(C)C1=O", "Potency": "inconclusive: 3.16 µM [inhibitor, single point]"}
{"compound": "Cc1ccc(Nc2cc(-c3ccccc3)nc3ncnn23)cc1", "Potency": "inactive"}
{"compound": "CC(C)CC(=O)Nc1nc2ccc(S(=O)(=O)N3CCOCC3)cc2s1", "Potency": "inconclusive: 89.1 µM [inhibitor, partial curve, poor fit]"}
{"compound": "COc1ccc(-c2cc(C(=O)Oc3ccc(Cl)cc3)c3ccccc3n2)cc1", "Potency": "inactive"}
{"compound": "Cc1c(NCc2ccncc2)cccc1C(=O)O", "Potency": "inconclusive: 0.282 µM [inhibitor, full curve]"}
{"compound": "Cc1ccc(S(=O)(=O)N2CCOCC2)cc1C(=O)O", "Potency": "inconclusive: 89.1 µM [inhibitor, single point]"}
{"compound": "O=S1(=O)c2ccccc2N=NN1Cc1ccc(Cl)cc1", "Potency": "active: 0.631 µM"}
{"compound": "COC(=O)CCC(=O)OC1(C)C(=O)C2=CN(CC3CC3)C(c3ccc(OC)cc3)=CC2=C(Br)C1=O", "note": "(stereo unspecified)", "Potency": "inconclusive: 10 µM [inhibitor, single point]"}
{"compound": "Cc1cc(C)c2c(CN3CCN(Cc4ccccc4)CC3)cc(=O)oc2c1C", "Potency": "active: 50.1 µM"}
{"compound": "Cc1ccc(C(=O)NC2CCN(C(=O)NC3CCCCC3)CC2)cc1", "Potency": "inconclusive: 20 µM [inhibitor, partial curve]"}
{"compound": "CCc1ccccc1NC(=O)C1=CC(c2ccc3c(c2)OCO3)=NS(=O)(=O)N1C", "Potency": "inconclusive: 39.8 µM [inhibitor, partial curve, poor fit]"}
{"compound": "CCN(CC)c1ccc(NC(=O)c2[nH]c(C)c(C(C)=O)c2C)c(C)c1", "Potency": "inconclusive: 2.82 µM [inhibitor, partial curve, poor fit]"}
{"compound": "Cc1nn(-c2ccc(Cl)cc2)c(N)c1C(O)(CSc1nccn1C)C(F)(F)F", "note": "(stereo unspecified)", "Potency": "inconclusive: 44.7 µM [inhibitor, partial curve, poor fit]"}
{"compound": "COc1ccc(CCNC(=O)c2cc3cccc4c3n2CC(C)S4)c(OC)c1OC", "note": "(stereo unspecified)", "Potency": "inactive"}
{"compound": "CCCC(=O)Nc1c(C(=O)N2CCN(c3ccccc3)CC2)oc2ccccc12", "Potency": "inconclusive: 39.8 µM [inhibitor, partial curve, poor fit]"}
{"compound": "CC(C)c1ccc(S(=O)(=O)Nc2cc3c(cc2NCc2ccccc2)n(C)c(=O)n3C)cc1", "Potency": "inconclusive: 12.6 µM [inhibitor, partial curve, poor fit]"}
{"compound": "O=C(CSc1nc(-c2ccccc2)[nH]c1-c1ccc(F)cc1)NC1CCCC1", "Potency": "inactive"}
{"compound": "Cc1ccc(OCC(=O)O/N=C(\\N)c2ccccn2)cc1", "Potency": "inconclusive: 10 µM [inhibitor, full curve, poor fit]"}
{"compound": "COc1ccccc1NS(=O)(=O)c1ccc2oc(SC)nc2c1", "Potency": "inactive"}
{"compound": "O=C(c1cccc(F)c1)N1CCC2(CC1)CN(Cc1ccccc1)C2", "activity, negative = inhibition": "inactive: -0.544% [at 12.7 µM]"}
{"compound": "Cc1ccc(NC(=O)C2C3C=CC4(O3)C2C(=O)N(CCCN2CCCCC2)C4C(=O)NC2CCCCC2)cc1Cl", "note": "(stereo unspecified)", "Potency": "inconclusive: 79.4 µM [inhibitor, partial curve, poor fit]"}
{"compound": "CCNC(=O)NC1(C(=O)Nc2ccc3c(c2)OCCO3)CCCCC1", "activity, negative = inhibition": "inactive: 3.77% [at 0.501 µM]"}
{"compound": "COc1ccc(NC(=O)c2ccc(C(=O)Nc3ccc(OC)cc3OC)cc2)c(OC)c1", "Potency": "inactive"}
{"compound": "COC(=O)C1C(=O)c2c(C)noc2CC1(C)C", "note": "(stereo unspecified)", "Potency": "inactive"}
{"compound": "Cc1cc(C)cc(NC(=O)COc2ccc(C(=S)N3CCOCC3)cc2)c1", "Potency": "inconclusive: 50.1 µM [inhibitor, partial curve, poor fit]"}
{"compound": "COc1ccc(NC(=O)CSc2cn[nH]n2)cc1OC", "Potency": "active: 35.5 µM"}
{"compound": "Cc1ccc(C)c2[nH]c(=O)c(C(c3nnnn3C3CCCC3)N3CCOCC3)cc12", "note": "(stereo unspecified)", "activity, negative = inhibition": "inactive: 1.54% [at 2.33 µM]"}
{"compound": "Cc1nc(Nc2ccc3c(c2)OCCO3)c2nnn(Cc3ccccc3Cl)c2n1", "Potency": "inactive"}
{"compound": "CC(C)(C)c1cnnn1-c1ccc(C(=O)CCl)cc1", "activity, negative = inhibition": "inconclusive: -99.8% [inhibitor]"}
{"compound": "O=C(COC(=O)CNC(=O)c1ccccc1F)Nc1ccc2c(c1)OCCO2", "Potency": "inconclusive: 89.1 µM [inhibitor, single point]"}
